In the supplement of paper PMC11125491:
± gives the standard deviation of the averaged measurements. Growth of baker's yeast expressing single-residue variants of Pneumocystis jirovecii dihydrofolate reductase in 8.8 or 44 µM methotrexate (about 75% and 90% inhibition of the wild type). Selection coefficient per generation; 0 = like wild type, above 0 = less sensitive, below 0 = more sensitive or loss of function. No active / inactive call per row; the paper calls resistant above 0.220 (8.8 µM) or 0.243 (44 µM) together with a significance test. At 44 µM about 15% of codons end with one read or none, so the lowest values are floors (replicate rank correlation 0.74; 0.94 at 8.8 µM).

B1: UniProt A0EPZ9; numbered along this chain (parent)
chain: MDWQKSLTLIVALTLSRGIGLKNDLPWKLKSDMMFFSRVTSGLLVTRSTGQMNVVLMGRKTWESLPAHSRPLKNRINVVISRQEVLDLGGGAYHARSLDDALALLSQIYDSTSKIQLNRVFVIGGGELCKAAMEHSRLNRIIATVIHNEVDCDVFFPIDFRSSQSCLPWRKQDHSVLEAWVGSKVPQGKINENGFIYEFEMWIRDI

Variants of: B1
Assay: selection coefficient against synonymous wild-type codons (log2 per generation); higher = faster growth than wild type
Details: with Saccharomyces cerevisiae carrying the variant on a plasmid
Experimental: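 Pooled growth of yeast carrying single-residue variants of P. jirovecii dihydrofolate reductase (own DFR1 gene intact), two passages at 30 °C, three cultures, sequenced before and after. Codons with under 15 starting reads are left out; codons of one change are averaged.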

Variant	selection coefficient against synonymous wild-type codons (log2) (methotrexate 8.8 µM)	selection coefficient against synonymous wild-type codons (log2) (methotrexate 44 µM)
L72S	-0.326 ± 0.14	-0.124 ± 0.14
E84N	-0.169 ± 0.093	0.273 ± 0.53
E84Y	-0.497 ± 0.097	-0.27 ± 0.024
G194C	-0.233 ± 0.038	-0.0629 ± 0.098
T40L	-0.686 ± 0.04	-0.206 ± 0.19
T40P	-0.553 ± 0.064	-0.306 ± 0.12
T40V	0.0277 ± 0.025	0.185 ± 0.029
S175N	0.0197 ± 0.022	-0.0536 ± 0.078
S175C	-0.153 ± 0.027	-0.209 ± 0.12
P186V	-0.337 ± 0.036	-0.356 ± 0.14
P186R	-0.114 ± 0.043	-0.0993 ± 0.28
M52E	-0.0921 ± 0.059	-0.152 ± 0.23
M52H	-0.101 ± 0.053	-0.061 ± 0.092
S163M	-0.0143 ± 0.022	-0.00207 ± 0.021
S163L	-0.0653 ± 0.062	-0.0162 ± 0.11
S163F	-0.0863 ± 0.058	-0.149 ± 0.092
R137N	0.1 ± 0.027	0.16 ± 0.015
R137E	-0.0495 ± 0.012	0.0238 ± 0.069
R137S	0.105 ± 0.028	0.195 ± 0.065
R17P	-0.0894 ± 0.12	0.00123 ± 0.11
R17H	0.293 ± 0.038	0.247 ± 0.07
A131I	-0.296 ± 0.066	-0.322 ± 0.051
V176G	0.0117 ± 0.058	-0.0566 ± 0.042
V176T	0.0345 ± 0.037	-0.023 ± 0.064

Variant	selection coefficient against synonymous wild-type codons (log2) (methotrexate 8.8 µM)	selection coefficient against synonymous wild-type codons (log2) (methotrexate 44 µM)
V176H	0.0122 ± 0.049	-0.0908 ± 0.05
Q164S	-0.106 ± 0.11	-0.0827 ± 0.081
R140E	-0.0202 ± 0.0075	0.0289 ± 0.048
M33E	0.633 ± 0.024	0.727 ± 0.038
M33T	0.688 ± 0.043	0.868 ± 0.04
H94A	-0.483 ± 0.098	-0.235 ± 0.059
H94Q	-0.0901 ± 0.049	-0.0879 ± 0.043
H94R	-0.516 ± 0.15	-0.188 ± 0.097
E149L	-0.388 ± 0.13	-0.392 ± 0.095
E149Y	-0.309 ± 0.17	-0.24 ± 0.044
W180F	0.0341 ± 0.038	-0.0509 ± 0.079
F195S	0.184 ± 0.077	0.138 ± 0.15
F195N	0.157 ± 0.092	0.112 ± 0.068
F195V	0.0872 ± 0.031	0.0323 ± 0.068
F195Q	0.254 ± 0.054	0.238 ± 0.048
A103V	-0.0805 ± 0.032	-0.0593 ± 0.19
G89A	-0.17 ± 0.025	-0.186 ± 0.14
K184A	-0.0829 ± 0.041	-0.205 ± 0.075
G125N	-0.613 ± 0.049	-0.111 ± 0.051
D32T	-0.561 ± 0.1	-0.356 ± 0.095
D32P	-0.494 ± 0.083	-0.314 ± 0.036
D24Y	-0.103 ± 0.041	-0.19 ± 0.15
F36L	0.259 ± 0.039	0.31 ± 0.071
F36A	0.234 ± 0.075	0.522 ± 0.08

Variant	selection coefficient against synonymous wild-type codons (log2) (methotrexate 8.8 µM)	selection coefficient against synonymous wild-type codons (log2) (methotrexate 44 µM)
V145S	-0.009 ± 0.039	0.00539 ± 0.12
V145E	-0.0421 ± 0.046	-0.0785 ± 0.051
V145L	-0.221 ± 0.053	-0.191 ± 0.14
P168Q	-0.0785 ± 0.048	-0.201 ± 0.13
A132M	-0.278 ± 0.039	-0.255 ± 0.064
G20A	0.0801 ± 0.15	0.104 ± 0.088
R70K	0.078 ± 0.041	0.0719 ± 0.095
R70Y	-0.171 ± 0.16	-0.126 ± 0.041
F160H	0.474 ± 0.05	0.555 ± 0.0066
H68Y	-0.0261 ± 0.12	0.0457 ± 0.029
L86N	0.0183 ± 0.021	-0.0983 ± 0.14
I190G	-0.291 ± 0.095	-0.375 ± 0.14
I190D	-0.245 ± 0.069	-0.299 ± 0.14
I190A	-0.228 ± 0.057	-0.256 ± 0.18
I190T	-0.0716 ± 0.034	-0.283 ± 0.16
I190L	-0.15 ± 0.054	-0.217 ± 0.14
I190N	-0.134 ± 0.054	-0.0983 ± 0.059
W3S	0.239 ± 0.017	0.194 ± 0.068
W3M	0.392 ± 0.029	0.423 ± 0.043
S81M	-0.766 ± 0.055	-0.22 ± 0.085
F156Q	0.578 ± 0.043	0.71 ± 0.036
F156M	0.283 ± 0.032	0.264 ± 0.015
V54K	-0.46 ± 0.03	-0.171 ± 0.08
V54E	-0.622 ± 0.035	-0.375 ± 0.035

Variant	selection coefficient against synonymous wild-type codons (log2) (methotrexate 8.8 µM)	selection coefficient against synonymous wild-type codons (log2) (methotrexate 44 µM)
V54L	-0.56 ± 0.13	-0.339 ± 0.13
V54A	0.0688 ± 0.043	0.112 ± 0.1
V54Y	-0.527 ± 0.065	-0.321 ± 0.016
V54M	-0.517 ± 0.1	-0.337 ± 0.11
V11M	0.593 ± 0.022	0.7452 ± 0.0072
V11C	0.406 ± 0.042	0.457 ± 0.034
V11A	0.176 ± 0.056	0.215 ± 0.067
R161M	-0.0449 ± 0.022	-0.145 ± 0.075
R161C	0.055 ± 0.072	0.0141 ± 0.045
R82Q	-0.0862 ± 0.051	-0.185 ± 0.083
R82V	-0.349 ± 0.085	-0.293 ± 0.12
L9V	0.261 ± 0.039	0.221 ± 0.061
W202L	0.107 ± 0.058	0.0197 ± 0.12
S64I	-0.474 ± 0.073	-0.268 ± 0.085
R75G	-0.515 ± 0.32	-0.183 ± 0.29
R75E	-0.57 ± 0.2	-0.319 ± 0.04
R75Y	-0.565 ± 0.072	-0.106 ± 0.048
A179Y	-0.263 ± 0.058	-0.328 ± 0.21
N139F	-0.287 ± 0.15	-0.0314 ± 0.043
G42M	-0.0396 ± 0.027	-0.0446 ± 0.11
G42C	-0.15 ± 0.077	-0.0843 ± 0.069
K30F	0.0303 ± 0.063	0.113 ± 0.084
T8D	-0.195 ± 0.061	-0.169 ± 0.029
L98E	-0.795 ± 0.046	-0.29 ± 0.048

Variant	selection coefficient against synonymous wild-type codons (log2) (methotrexate 8.8 µM)	selection coefficient against synonymous wild-type codons (log2) (methotrexate 44 µM)
V85P	-0.003 ± 0.1	0.0622 ± 0.16
Q116M	-0.198 ± 0.059	-0.256 ± 0.11
F155Q	0.341 ± 0.034	0.343 ± 0.017
K114Q	-0.0463 ± 0.031	-0.0623 ± 0.18
K114E	0.0166 ± 0.032	0.0728 ± 0.05
T14D	0.159 ± 0.028	0.0421 ± 0.11
T14N	0.0842 ± 0.08	0.0875 ± 0.059
I158S	0.0135 ± 0.056	-0.0781 ± 0.081
I158M	-0.00917 ± 0.053	-0.0505 ± 0.13
I158H	0.0575 ± 0.054	0.00873 ± 0.056
I158W	0.0462 ± 0.051	-0.118 ± 0.075
S162V	-0.128 ± 0.06	-0.255 ± 0.23
S162P	0.0938 ± 0.064	0.0621 ± 0.095
S162H	-0.0517 ± 0.069	-0.228 ± 0.11
C166Q	0.00536 ± 0.053	-0.152 ± 0.14
N118C	-0.0546 ± 0.061	0.0302 ± 0.11
K60S	0.021 ± 0.084	-0.0868 ± 0.13
I19F	0.476 ± 0.013	0.576 ± 0.017
I19W	0.323 ± 0.06	0.419 ± 0.065
L65M	0.00928 ± 0.077	0.0888 ± 0.073
